# The sequences are guide strands of siRNAs; only the seed at positions 2 to 7 varies.
# Legend:
# [1] = tested on: H4; assay: cell viability relative to siNT1 (ATP content); H4 human neuroglioma and GL261 mouse glioma; higher = less toxic; details: siRNA concentration 10 nM; 96 h; human
# [2] = tested on: GL261; assay: as above; details: siRNA concentration 25 nM; 96 h; mouse
# 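Further: cells reverse transfected with siRNA duplexes via lipid reagent, ATP read by luminescence, triplicate wells, values scaled to mean viability with non-targeting control siNT1.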
sequence,measurement,setting,value
UUAGGGGACAUGUAAACCA,cell viability,[1],43.6%
same,cell viability,[2],46.3%
UUAGGGUACAUGUAAACCA,cell viability,[1],34.4%
same,cell viability,[2],27.3%
UUAGGUAACAUGUAAACCA,cell viability,[1],84.8%
same,cell viability,[2],43.7%
UUAGGUCACAUGUAAACCA,cell viability,[1],10.4%
same,cell viability,[2],49.1%
UUAGGUGACAUGUAAACCA,cell viability,[1],77.9%
same,cell viability,[2],59.1%
UUAGGUUACAUGUAAACCA,cell viability,[1],84.7%
same,cell viability,[2],39.5%
UUAGUAAACAUGUAAACCA,cell viability,[1],87.4%
same,cell viability,[2],45.8%
UUAGUACACAUGUAAACCA,cell viability,[1],74%
same,cell viability,[2],33.5%
UUAGUAGACAUGUAAACCA,cell viability,[1],91.6%
same,cell viability,[2],49.7%
UUAGUAUACAUGUAAACCA,cell viability,[1],75.9%
same,cell viability,[2],40.8%
UUAGUCAACAUGUAAACCA,cell viability,[1],90.5%
same,cell viability,[2],45%
UUAGUCCACAUGUAAACCA,cell viability,[1],37.4%
same,cell viability,[2],30.2%
UUAGUCGACAUGUAAACCA,cell viability,[1],100%
same,cell viability,[2],65.8%
UUAGUCUACAUGUAAACCA,cell viability,[1],73.7%
same,cell viability,[2],31.9%
UUAGUGAACAUGUAAACCA,cell viability,[1],76.8%
same,cell viability,[2],76.4%
UUAGUGCACAUGUAAACCA,cell viability,[1],90.2%
same,cell viability,[2],33.2%
UUAGUGGACAUGUAAACCA,cell viability,[1],50.6%
same,cell viability,[2],35.9%
UUAGUGUACAUGUAAACCA,cell viability,[1],28.4%
same,cell viability,[2],55.7%
UUAGUUAACAUGUAAACCA,cell viability,[1],71.8%
same,cell viability,[2],66.9%
UUAGUUCACAUGUAAACCA,cell viability,[1],59%
same,cell viability,[2],45.3%
UUAGUUGACAUGUAAACCA,cell viability,[1],72.8%
same,cell viability,[2],71.6%
UUAGUUUACAUGUAAACCA,cell viability,[1],101%
same,cell viability,[2],67.3%
UUAUAAAACAUGUAAACCA,cell viability,[1],100%
same,cell viability,[2],64.4%
UUAUAACACAUGUAAACCA,cell viability,[1],65.2%
same,cell viability,[2],46.4%
UUAUAAGACAUGUAAACCA,cell viability,[1],90.7%
same,cell viability,[2],53.3%
UUAUAAUACAUGUAAACCA,cell viability,[1],94.4%
same,cell viability,[2],60.4%
UUAUACAACAUGUAAACCA,cell viability,[1],74.2%
same,cell viability,[2],47.6%
UUAUACCACAUGUAAACCA,cell viability,[1],47.7%
same,cell viability,[2],36.2%
UUAUACGACAUGUAAACCA,cell viability,[1],77.7%
same,cell viability,[2],54.7%
UUAUACUACAUGUAAACCA,cell viability,[1],40.5%
same,cell viability,[2],23.9%
UUAUAGAACAUGUAAACCA,cell viability,[1],70.8%
same,cell viability,[2],62.9%
UUAUAGCACAUGUAAACCA,cell viability,[1],26%
same,cell viability,[2],26%
UUAUAGGACAUGUAAACCA,cell viability,[1],65.6%
same,cell viability,[2],41.4%
UUAUAGUACAUGUAAACCA,cell viability,[1],48.4%
same,cell viability,[2],58.2%
UUAUAUAACAUGUAAACCA,cell viability,[1],88.5%
same,cell viability,[2],68.8%
UUAUAUCACAUGUAAACCA,cell viability,[1],73.6%
same,cell viability,[2],20.7%
UUAUAUGACAUGUAAACCA,cell viability,[1],87.1%
same,cell viability,[2],56.8%
UUAUAUUACAUGUAAACCA,cell viability,[1],79.9%
same,cell viability,[2],34.2%
UUAUCAAACAUGUAAACCA,cell viability,[1],76.8%
same,cell viability,[2],45.9%
UUAUCACACAUGUAAACCA,cell viability,[1],63.3%
same,cell viability,[2],30.1%
UUAUCAGACAUGUAAACCA,cell viability,[1],70.6%
same,cell viability,[2],41.1%
UUAUCAUACAUGUAAACCA,cell viability,[1],75.7%
same,cell viability,[2],50.1%
UUAUCCAACAUGUAAACCA,cell viability,[1],74.7%
same,cell viability,[2],41.7%
UUAUCCCACAUGUAAACCA,cell viability,[1],9.25%
same,cell viability,[2],16.5%
UUAUCCGACAUGUAAACCA,cell viability,[1],82%
same,cell viability,[2],33.8%
UUAUCCUACAUGUAAACCA,cell viability,[1],51.9%
same,cell viability,[2],35.9%
UUAUCGAACAUGUAAACCA,cell viability,[1],93.6%
same,cell viability,[2],49.7%
UUAUCGCACAUGUAAACCA,cell viability,[1],51.8%
same,cell viability,[2],38%
UUAUCGGACAUGUAAACCA,cell viability,[1],74.1%
same,cell viability,[2],61.7%
UUAUCGUACAUGUAAACCA,cell viability,[1],88.6%
same,cell viability,[2],34.6%
UUAUCUAACAUGUAAACCA,cell viability,[1],102%
same,cell viability,[2],43.9%
UUAUCUCACAUGUAAACCA,cell viability,[1],74%
same,cell viability,[2],15.7%
UUAUCUGACAUGUAAACCA,cell viability,[1],87.2%
same,cell viability,[2],59.3%
UUAUCUUACAUGUAAACCA,cell viability,[1],78%
same,cell viability,[2],29.9%
UUAUGAAACAUGUAAACCA,cell viability,[1],82.4%
same,cell viability,[2],61.5%
UUAUGACACAUGUAAACCA,cell viability,[1],32.1%
same,cell viability,[2],36.9%
UUAUGAGACAUGUAAACCA,cell viability,[1],42.6%
same,cell viability,[2],50.7%
UUAUGAUACAUGUAAACCA,cell viability,[1],51.3%
same,cell viability,[2],46.8%
UUAUGCAACAUGUAAACCA,cell viability,[1],41.2%
same,cell viability,[2],53.8%

# — the supplement of paper PMC8948288
